From paper PMC5700166
The list shows a part of the results, in another mix than the full data. The list includes weakly bound sequences.

How the values were obtained:
Experiment in all cases: protein-binding microarray (PBM)
Details in all cases: PBM: ~300 nM protein, 6 mM HEPES pH 7.8, 80 mM KCl, 0.5 mM EDTA, 0.5 mM EGTA, 6% glycerol, 35 ng/ul poly-dIdC, 1% milk, 1 h, room temperature; Ap Aiptasia and Nv Nematostella (sea anemones) / Co Capsaspora / Aq Amphimedon (sponge) / Dm Drosophila / Hu human; RHD is the Rel homology domain; high values mean tight binding; most listed sequences are background and not binding sites; double strand, one strand shown
GST-Ap-NF-kB RHD = molecular target: T1, GST-Ap-NF-kB RHD (UniProt A0A913YAJ5)
T1 sequence: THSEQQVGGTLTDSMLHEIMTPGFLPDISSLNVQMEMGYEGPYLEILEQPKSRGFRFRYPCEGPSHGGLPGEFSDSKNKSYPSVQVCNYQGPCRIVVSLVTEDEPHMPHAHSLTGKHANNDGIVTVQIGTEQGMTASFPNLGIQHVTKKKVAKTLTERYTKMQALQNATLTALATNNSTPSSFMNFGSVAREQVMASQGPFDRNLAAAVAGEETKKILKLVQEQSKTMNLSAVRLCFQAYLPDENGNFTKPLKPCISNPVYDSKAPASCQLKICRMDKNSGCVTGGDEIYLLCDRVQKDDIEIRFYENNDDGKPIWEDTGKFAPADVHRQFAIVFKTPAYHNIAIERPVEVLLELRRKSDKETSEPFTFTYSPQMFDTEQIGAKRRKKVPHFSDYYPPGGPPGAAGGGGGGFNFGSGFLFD

[1] = molecular target: T2, GST-Nv-NF-kB (Cys allele) (UniProt E5G601)
T2 sequence: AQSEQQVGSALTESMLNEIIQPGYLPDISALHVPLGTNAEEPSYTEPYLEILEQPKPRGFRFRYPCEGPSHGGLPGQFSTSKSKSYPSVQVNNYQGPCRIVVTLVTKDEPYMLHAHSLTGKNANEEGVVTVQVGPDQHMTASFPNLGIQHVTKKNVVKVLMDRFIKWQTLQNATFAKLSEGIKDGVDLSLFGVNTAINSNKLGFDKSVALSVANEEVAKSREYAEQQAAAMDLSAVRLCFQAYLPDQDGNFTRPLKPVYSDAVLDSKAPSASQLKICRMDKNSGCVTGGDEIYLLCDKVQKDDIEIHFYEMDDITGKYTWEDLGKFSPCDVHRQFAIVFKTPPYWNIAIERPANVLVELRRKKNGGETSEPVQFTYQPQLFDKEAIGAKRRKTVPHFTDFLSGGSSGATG

GST-Co-NF-kB = molecular target: T3, GST-Co-NF-kB (UniProt F1ARL5)
T3 sequence: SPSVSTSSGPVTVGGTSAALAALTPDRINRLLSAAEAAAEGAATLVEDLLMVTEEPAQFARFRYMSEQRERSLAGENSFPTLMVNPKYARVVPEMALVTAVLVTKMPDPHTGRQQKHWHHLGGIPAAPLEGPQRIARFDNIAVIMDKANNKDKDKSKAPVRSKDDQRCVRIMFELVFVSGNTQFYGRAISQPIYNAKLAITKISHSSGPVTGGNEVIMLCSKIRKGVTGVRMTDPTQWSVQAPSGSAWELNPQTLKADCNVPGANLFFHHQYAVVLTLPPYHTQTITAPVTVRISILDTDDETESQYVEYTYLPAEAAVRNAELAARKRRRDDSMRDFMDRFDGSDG

GST-Dm-Relish = molecular target: T4, GST-Dm-Relish (UniProt Q94527)
T4 sequence: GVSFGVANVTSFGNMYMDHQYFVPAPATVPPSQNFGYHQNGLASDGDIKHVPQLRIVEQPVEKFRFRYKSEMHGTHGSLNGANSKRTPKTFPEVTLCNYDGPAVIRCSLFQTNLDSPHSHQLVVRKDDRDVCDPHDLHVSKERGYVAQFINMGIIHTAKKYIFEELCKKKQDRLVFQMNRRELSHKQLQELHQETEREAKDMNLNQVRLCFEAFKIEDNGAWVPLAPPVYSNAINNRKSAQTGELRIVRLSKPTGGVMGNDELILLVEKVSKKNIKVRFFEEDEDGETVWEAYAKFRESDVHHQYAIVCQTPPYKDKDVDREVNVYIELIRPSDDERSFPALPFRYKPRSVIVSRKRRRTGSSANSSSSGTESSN

GST-Aq-NF-kB = molecular target: T5, GST-Aq-NF-kB (UniProt A9Y5G7)
T5 sequence: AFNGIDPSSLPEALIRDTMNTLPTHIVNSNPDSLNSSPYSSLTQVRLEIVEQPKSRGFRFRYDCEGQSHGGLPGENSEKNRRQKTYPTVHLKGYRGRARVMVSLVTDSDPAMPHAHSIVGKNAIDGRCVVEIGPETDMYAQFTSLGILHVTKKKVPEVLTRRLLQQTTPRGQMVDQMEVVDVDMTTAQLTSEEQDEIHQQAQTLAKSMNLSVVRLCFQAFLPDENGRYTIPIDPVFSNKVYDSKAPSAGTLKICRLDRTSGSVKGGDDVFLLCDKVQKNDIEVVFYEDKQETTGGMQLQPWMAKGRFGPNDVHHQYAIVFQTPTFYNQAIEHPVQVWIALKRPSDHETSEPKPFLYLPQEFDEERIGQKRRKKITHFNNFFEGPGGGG

Row | Sequence | binding signal (GST-Ap-NF-kB RHD) [z-score] | binding signal [1] [z-score] | binding signal (GST-Co-NF-kB) [z-score] | binding signal (GST-Dm-Relish) [z-score] | binding signal (GST-Aq-NF-kB) [z-score]
1 | CCGATTAACATCAACAGACGTGGTGATGTTAATCGGGTCTTGATTCGCTTGACGCTGCTG | -0.542 | -0.181 | -0.277 | 0.0587 | -0.35
2 | CCGATTAACATCACCGCAGCCTTTGATGTTAATCGGGTCTTGATTCGCTTGACGCTGCTG | 0.445 | -0.188 | -0.64 | 0.642 | 0.0886
3 | CCGATTAACATCACTATTGTACATGATGTTAATCGGGTCTTGATTCGCTTGACGCTGCTG | -0.282 | -0.803 | 0.378 | 1.29 | -0.234
4 | CCGATTAACATCAAGGACATTCCTGATGTTAATCGGGTCTTGATTCGCTTGACGCTGCTG | -0.0877 | -0.184 | -0.341 | 0.36 | 1.43
5 | CCGATTAACATCAAGGTCGTATATGATGTTAATCGGGTCTTGATTCGCTTGACGCTGCTG | -0.285 | -0.691 | -0.54 | -0.518 | -0.209
6 | CCGATTAACATCAGGGCGTTCAATGATGTTAATCGGGTCTTGATTCGCTTGACGCTGCTG | 0.266 | 0.318 | -0.773 | -0.0928 | -0.131
7 | CCGATTAACATCACGGGCACTCCTGATGTTAATCGGGTCTTGATTCGCTTGACGCTGCTG | 0.11 | -1.18 | 0.476 | 0.207 | 0.479
8 | CCGATTAACATCATTACTAGACGTGATGTTAATCGGGTCTTGATTCGCTTGACGCTGCTG | -0.215 | -0.00344 | -0.563 | 0.219 | -0.373
9 | CCGATTAACATCAAAGTCTCCAATGATGTTAATCGGGTCTTGATTCGCTTGACGCTGCTG | -0.536 | -0.0215 | 0.00406 | -0.682 | -0.353
10 | CCGATTAACATCATGCTGACGTGTGATGTTAATCGGGTCTTGATTCGCTTGACGCTGCTG | -0.0388 | -1.25 | 0.22 | 0.313 | 0.0317
11 | CCGATTAACATCATTTCCGGAAATGATGTTAATCGGGTCTTGATTCGCTTGACGCTGCTG | -0.131 | 0.86 | -1.12 | 0.0941 | 0.679
12 | CCGATTAACATCACGTATCACCGTGATGTTAATCGGGTCTTGATTCGCTTGACGCTGCTG | 0.143 | 0.0719 | -0.803 | 0.676 | -0.561
13 | CCGATTAACATCAACTAAATTCCTGATGTTAATCGGGTCTTGATTCGCTTGACGCTGCTG | -0.401 | -0.0331 | -0.172 | 0.419 | -0.0369
14 | CCGATTAACATCATAGTCGAACTTGATGTTAATCGGGTCTTGATTCGCTTGACGCTGCTG | -0.716 | -0.0298 | -0.674 | -0.964 | -0.678
15 | CCGATTAACATCAACTGAGCTTGTGATGTTAATCGGGTCTTGATTCGCTTGACGCTGCTG | -0.449 | -0.15 | 0.12 | -0.0984 | -0.42
16 | CCGATTAACATCAGCAGGTGCCATGATGTTAATCGGGTCTTGATTCGCTTGACGCTGCTG | 0.12 | -0.255 | -0.787 | -1.07 | -0.474
17 | CCGATTAACATCACGCAAACGCCTGATGTTAATCGGGTCTTGATTCGCTTGACGCTGCTG | -0.473 | -0.836 | -1.01 | -0.774 | -0.597
18 | CCGATTAACATCAGATTTTCCGCTGATGTTAATCGGGTCTTGATTCGCTTGACGCTGCTG | -0.232 | 0.476 | 0.194 | -0.0969 | 0.427
19 | CCGATTAACATCATCAACCCGGCTGATGTTAATCGGGTCTTGATTCGCTTGACGCTGCTG | -0.173 | 0.199 | -0.801 | -0.807 | -0.301
20 | CCGATTAACATCATTAATGACGGTGATGTTAATCGGGTCTTGATTCGCTTGACGCTGCTG | 0.494 | -0.262 | 0.667 | 0.579 | 0.368
21 | CCGATTAACATCATGCCGTCATATGATGTTAATCGGGTCTTGATTCGCTTGACGCTGCTG | -0.00116 | 0.114 | -0.612 | -0.168 | -0.463
22 | CCGATTAACATCAGCCTTATAAATGATGTTAATCGGGTCTTGATTCGCTTGACGCTGCTG | -0.24 | -0.412 | 0.287 | -0.429 | -0.168
23 | CCGATTAACATCATAGGAATGATTGATGTTAATCGGGTCTTGATTCGCTTGACGCTGCTG | -0.478 | 0.498 | -0.00322 | -0.0356 | -0.258
24 | CCGATTAACATCATAAAACGTTGTGATGTTAATCGGGTCTTGATTCGCTTGACGCTGCTG | -0.0786 | -0.237 | -0.137 | 0.566 | -0.316
25 | CCGATTAACATCACGTCTCCACATGATGTTAATCGGGTCTTGATTCGCTTGACGCTGCTG | -0.441 | 0.503 | -0.128 | -0.17 | -0.423
26 | CCGATTAACATCAGCATAAGCAATGATGTTAATCGGGTCTTGATTCGCTTGACGCTGCTG | -0.662 | -1.04 | -1.08 | -0.706 | -0.297
27 | CCGATTAACATCAGGTCCAAGGTTGATGTTAATCGGGTCTTGATTCGCTTGACGCTGCTG | -0.214 | -0.535 | -0.446 | -0.499 | -0.389
